Source: PubChem BioAssay AID686978 (National Center for Advancing Translational Sciences (NCATS), 2013)
Where “and” joins values, the source holds several entries; their conditions need not be identical. Equal values may be shown once. Hit rate of the full screen: of about 420,000 compounds, about 64,000 (15%) were called active. The shares of active, inactive and inconclusive entries below differ from those in the screen. Calls follow the shape of the dose curve; as a rule, active = well fitted inhibition curve with a large enough effect; inconclusive = small, poorly fitted or top-dose-only effect; inactive = flat fitted curve, though single readings scatter. A potency beside an inconclusive call is a rough fit, not a confirmed value.

Assay: qHTS for Inhibitors of human tyrosyl-DNA phosphodiesterase 1 (TDP1): qHTS in cells in absence of CPT; also: nearly all actives have a fitted effect of over 55% in size
Settings: DT40 Tdp1-/- hTDP1 cells, no CPT, ATP luminescence, 48 h; activity change, negative = growth inhibition: at 46.2 µM (top of the series) unless noted
Method in brief: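 No-CPT arm: Tdp1-/-;hTDP1 DT40 cells (400/well) plus compounds, incubated ≥48 hr at 37 °C. Readout CellTiter-Glo luminescence.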
% is scaled to controls: 0 for no effect and ±100 for the full control effect; potency is read from the fitted curve at half-maximal effect; tags tell the direction and shape of the fitted curve.

Compound | Potency | activity change, negative = growth inhibition
COc1ccccc1N1CCN(/N=C/c2ccc(O)cc2O)CC1 | inactive | 
Cc1noc(C)c1-c1ccc2ncnc(NCCN3CCOCC3)c2c1 | inconclusive: 25.9 µM [inhibitor, single point] | 
CCN(CC)c1ccc(S(=O)(=O)N2CCOCC2)cc1NC(=O)Cn1nc(C)c([N+](=O)[O-])c1C | inconclusive: 23.1 µM [inhibitor, single point] | 
Cc1nn(CCCC(=O)NCCc2ccc(Cl)cc2)c(=O)c2nn(-c3ccccc3)c(C)c12 | inactive and inconclusive: 25.9 µM [inhibitor, single point] | 
O=C(NCc1cccc(Cl)c1)c1oc(=O)c2ccccc2c1-c1ccccc1 | inactive | 
O=C1C2C(c3cccc(/C=C/c4ccccc4)c3)CC=CC2C(c2ccc(C(F)(F)F)cc2)N1Cc1ccccc1 (stereo not given) | inconclusive: 16.4 µM [inhibitor, partial curve] | 
COc1ccccc1CNS(=O)(=O)c1cc(-c2cc(C)no2)ccc1C | inconclusive: 25.9 µM [inhibitor, single point] | 
CS/C(=N/S(=O)(=O)c1ccc(C)cc1)c1ccccc1 | inactive | 
O=C(N/N=C\c1c(O)ccc2ccccc12)c1ccc(O)cc1 | active: 6.51 µM | 
Cc1ccccc1Nc1nc(N)nc(COC(=O)c2ccc([N+](=O)[O-])o2)n1 |  | inconclusive: -32.4% [inhibitor]
Cc1ccc(-c2cc(NC(=O)COc3c(C)cc(C)cc3C)on2)cc1 | inactive | 
COc1ccccc1N1CCN(CC(C)N(C(=O)C2CCCCC2)c2ccccn2)CC1 (stereo not given) | inconclusive: 23.1 µM [inhibitor, single point] | 
CN(C)C(CNc1ccc(C(F)(F)F)cc1[N+](=O)[O-])c1ccccc1 (stereo not given) | inconclusive: 29.1 µM [inhibitor, single point] | 
CCc1nc(-c2ccc(OC)c(OC)c2)cc2cc(OC)c(OC)cc12 | active: 20.6 µM | 
O=C(NCc1ccccc1F)c1cccc(NC(=O)N2CCSc3ncccc32)c1 | inconclusive: 20.6 µM [inhibitor, single point] | 
COc1ccc(CNC(=O)c2ccc(CS(=O)Cc3ccc(Cl)cc3)o2)cc1 (stereo not given) | inactive | 
CC(=O)N(CCOc1ccccc1)CCOc1ccccc1 | inconclusive: 23.1 µM [inhibitor, single point] | 
CCOC(=O)N1CCN(C(=O)c2ccc3nc(SCc4ccc(F)cc4)n(C)c3c2)CC1 | active: 20.6 µM | 
CCn1c(=O)c(C(=O)Nc2cc(OC)c(OC)c(OC)c2)nc2ccccc21 | inactive | 
Cc1ccc2cc(CN(CCc3ccccc3)C(=S)NCCCN(C)C)c(=O)[nH]c2c1 | active: 25.9 µM | 
O=C(Cc1ccc(F)cc1)Nc1cccc(-c2cn3c(n2)SCC3)c1 | inconclusive: 29.1 µM [inhibitor, single point] | 
O=C(c1ccc(-c2ccccc2)cc1)N1CCN(c2ccc3c(c2)C2CC3CCN2C(=O)OCc2ccccc2)CC1 (stereo not given) | inconclusive: 11.6 µM [inhibitor, partial curve] | 
CCCCCn1c(=O)[nH]c2cc(C(=O)NCCN3CCOCC3)ccc2c1=O | inconclusive: 16.4 µM [inhibitor, partial curve, poor fit] | 

Compound | Potency | activity change, negative = growth inhibition
CC(=NNc1ccc([N+](=O)[O-])cn1)c1ccc(N)cc1 | inconclusive: 18.4 µM [inhibitor, single point] | 
C=CCn1c(SCc2ccc(C#N)cc2)nnc1-c1ccc(C)cc1 | active: 16.4 µM | 
COCCOC(=O)/C(C#N)=C/c1cn(Cc2ccccc2)nc1-c1cccnc1 | inconclusive: 20.6 µM [inhibitor, single point] | 
O=C(Nc1cccc(C(=O)O)c1)/C(=C\c1ccc2c(c1)OCO2)NC(=O)c1ccc(Br)cc1 | inconclusive: 25.9 µM [inhibitor, single point] | 
O=C(C1CCCN(S(=O)(=O)c2cccs2)C1)N1CCN(C2CCCCC2)CC1 (stereo not given) | inconclusive: 25.9 µM [inhibitor, single point] | 
COc1ccc(S(=O)(=O)n2cnc3ccccc32)c(C)c1 | active: 10.3 µM | 
CC1=C(C(=O)Nc2cccc(C(=O)N3CCN(c4cccc(C(F)(F)F)c4)CC3)c2)SCCO1 | active: 25.9 µM | 
O=C(COC(=O)CC1CCCC1)Nc1cccc(F)c1 | inactive | 
Cn1c(=O)nc2n(-c3ccc(Br)cc3)c3cccc(Cl)c3cc-2c1=O |  | inconclusive: -17% [inhibitor]
O=S(=O)(NCc1nnc2ccccn12)c1ccc(Cl)cc1 | inconclusive: 6.51 µM [inhibitor, single point] | 
CC(C)(C)OC(=O)N1CCC(c2c(C(=O)NCc3ccccn3)cnn2-c2ccccc2Cl)CC1 | inactive | 
CCOc1ccc(-c2nnc3sc(COc4ccc(Cl)cc4)nn23)cc1 | inconclusive: 13 µM [inhibitor, single point] | 
COc1ccc(NS(=O)(=O)c2cc(NC(=O)c3ccccc3F)ccc2N2CCCC2)cc1 | inconclusive: 23.1 µM [inhibitor, partial curve] | 
O=C(N/N=C/c1c(F)cccc1Cl)c1cc(C2CC2)[nH]n1 | inconclusive: 29.1 µM [inhibitor, single point] | 
COC(C/C=C/[C@H](O)[C@H](C)OCc1ccccc1)OC | inactive | 
Cc1cc(C)c(NC(=O)/C(C#N)=C/c2ccc(OCc3ccc(F)cc3)cc2)c(C)c1 | active: 6.51 µM | 
Cc1ccc(Nc2c(-c3cccc(Cl)c3)nc3cccc(C)n23)cc1 | active: 16.4 µM | 
Cc1ccc(NC(=O)CSc2nc(=O)n(CCN3CCOCC3)c3c2CCC3)cc1Cl | inconclusive: 29.1 µM [inhibitor, single point] | 
CNC(=O)c1ccc(NC(=O)c2cc(S(=O)(=O)N(C)C)ccc2N2CCCC2)cc1 | inactive | 
CC(=O)N1N=C(c2cccs2)CC1c1ccco1 (stereo not given) | inconclusive: 10.3 µM [inhibitor, partial curve] | 
CCC(=O)N1c2ccccc2CC1C(=O)NCCN1CCN(c2ccccc2F)CC1 (stereo not given) | inconclusive: 29.1 µM [inhibitor, single point] | 
CN(C)c1ccc(NC(=O)c2ccc(N3CCOCC3)nc2)cc1 | inconclusive: 18.4 µM [inhibitor, single point] | 
